T1: RBFOX1 RRM (Homo sapiens, UniProt Q9NWB1 109-208)
T1 sequence: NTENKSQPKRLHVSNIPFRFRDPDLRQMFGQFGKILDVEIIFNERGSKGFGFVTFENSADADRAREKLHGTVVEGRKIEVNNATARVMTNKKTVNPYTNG

B1: GAUAGGU (DNA:RNA)
RNA: GGGAGACCGGAAUUCAGAUUGUCCGAUAGGUUUAAAUCCCGUCGUAGCCACCA
DNA 1: CAATCTGAATTCCGGTCTCCC
DNA 2: TGGTGGCTACGACGGGATT
B2: UCCGAUU (DNA:RNA)
RNA: B1 RNA with G25U, A26C, U27C, A28G, G29A, G30U
DNA 1: CAATCTGAATTCCGGTCTCCC
DNA 2: TGGTGGCTACGACGGGATT
B3: UGCGGAC (DNA:RNA)
RNA: B1 RNA with G25U, A26G, U27C, A28G, G30A, U31C
DNA 1: CAATCTGAATTCCGGTCTCCC
DNA 2: TGGTGGCTACGACGGGATT
B4: ACCGUGU (DNA:RNA)
RNA: B1 RNA with G25A, A26C, U27C, A28G, G29U
DNA 1: CAATCTGAATTCCGGTCTCCC
DNA 2: TGGTGGCTACGACGGGATT
B5: CGUAUAG (DNA:RNA)
RNA: B1 RNA with G25C, A26G, G29U, G30A, U31G
DNA 1: CAATCTGAATTCCGGTCTCCC
DNA 2: TGGTGGCTACGACGGGATT
B6: UCAUCUG (DNA:RNA)
RNA: GGGAGACCGGAAUUCAGAUUGUCCUCAUCUGUUAAAUCCCGUCGUAGCCACCA
DNA 1: CAATCTGAATTCCGGTCTCCC
DNA 2: TGGTGGCTACGACGGGATT
B7: UACCUCC (DNA:RNA)
RNA: B1 RNA with G25U, U27C, A28C, G29U, G30C, U31C
DNA 1: CAATCTGAATTCCGGTCTCCC
DNA 2: TGGTGGCTACGACGGGATT
B8: UACCCCC (DNA:RNA)
RNA: B6 RNA with C26A, A27C, U28C, U30C, G31C
DNA 1: CAATCTGAATTCCGGTCTCCC
DNA 2: TGGTGGCTACGACGGGATT
B9: AAUCACG (DNA:RNA)
RNA: B1 RNA with G25A, A28C, G29A, G30C, U31G
DNA 1: CAATCTGAATTCCGGTCTCCC
DNA 2: TGGTGGCTACGACGGGATT
B10: CGCAUUA (DNA:RNA)
RNA: B1 RNA with G25C, A26G, U27C, G29U, G30U, U31A
DNA 1: CAATCTGAATTCCGGTCTCCC
DNA 2: TGGTGGCTACGACGGGATT
B11: UGUGUUU (DNA:RNA)
RNA: B1 RNA with G25U, A26G, A28G, G29U, G30U
DNA 1: CAATCTGAATTCCGGTCTCCC
DNA 2: TGGTGGCTACGACGGGATT
B12: ACAAUUA (DNA:RNA)
RNA: B6 RNA with U25A, U28A, C29U, G31A
DNA 1: CAATCTGAATTCCGGTCTCCC
DNA 2: TGGTGGCTACGACGGGATT
B13: UACAGAU (DNA:RNA)
RNA: B1 RNA with G25U, U27C, G30A
DNA 1: CAATCTGAATTCCGGTCTCCC
DNA 2: TGGTGGCTACGACGGGATT
B14: UACGGGG (DNA:RNA)
RNA: B1 RNA with G25U, U27C, A28G, U31G
DNA 1: CAATCTGAATTCCGGTCTCCC
DNA 2: TGGTGGCTACGACGGGATT
B15: AAUGGCA (DNA:RNA)
RNA: B1 RNA with G25A, A28G, G30C, U31A
DNA 1: CAATCTGAATTCCGGTCTCCC
DNA 2: TGGTGGCTACGACGGGATT
B16: CGGUUCA (DNA:RNA)
RNA: B6 RNA with U25C, C26G, A27G, C29U, U30C, G31A
DNA 1: CAATCTGAATTCCGGTCTCCC
DNA 2: TGGTGGCTACGACGGGATT
B17: UGUGCUG (DNA:RNA)
RNA: B6 RNA with C26G, A27U, U28G
DNA 1: CAATCTGAATTCCGGTCTCCC
DNA 2: TGGTGGCTACGACGGGATT
B18: CGAGCGG (DNA:RNA)
RNA: B6 RNA with U25C, C26G, U28G, U30G
DNA 1: CAATCTGAATTCCGGTCTCCC
DNA 2: TGGTGGCTACGACGGGATT
B19: CACCGGA (DNA:RNA)
RNA: B1 RNA with G25C, U27C, A28C, U31A
DNA 1: CAATCTGAATTCCGGTCTCCC
DNA 2: TGGTGGCTACGACGGGATT
B20: UUACGUU (DNA:RNA)
RNA: B6 RNA with C26U, U28C, C29G, G31U
DNA 1: CAATCTGAATTCCGGTCTCCC
DNA 2: TGGTGGCTACGACGGGATT

Substitutions are numbered along the chain they refer to; changes in the protein carry UniProt numbers. The list shows a part of the results.

In the assay the target is T1, RBFOX1 RRM. The assay is described as follows: EMSA; HiTS-Eq, 1 nM pool, 10 min; buffer printed only for the single-RNA assays: 10 mM Tris pH 7.5, 150 mM NaCl, 3.4 mM EDTA, 0.001% NP-40, 30 C. Particulars: tags: His6 N-terminal (pET28a); label: 5' 32P. In short, it runs like this: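 Purified RbFox RRM, wild type or mutant, was incubated for 10 min in 50 µL with 1 nM of a 5′-radiolabelled RNA pool carrying 7 randomized nucleotides, whose flanks were annealed to DNA oligonucleotides, over a series of increasing protein concentrations. Unbound RNA was resolved on 8% native PAGE, cut out, reverse-transcribed, barcoded by PCR and sequenced on an Illumina HiSeq 2500. Relative association constants were derived from changes in read counts for each RNA species versus the control reaction and normalised to the cognate motif.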
For orientation: In EMSA bound probe runs differently from free probe, usually more slowly.
For the molecule B1, the binding signal is 0.0129 KA relative to UGCAUGU.
In the case of B2, the binding signal was 0.00941 KA relative to UGCAUGU.
For the molecule B3, the binding signal was 0.0112 KA relative to UGCAUGU.
As for B4, the binding signal was 0.00728 KA relative to UGCAUGU.
With B5, the binding signal is 0.00844 KA relative to UGCAUGU.
Consider B6, for which the binding signal was 0.00773 KA relative to UGCAUGU.
As for B7, the binding signal is 0.00373 KA relative to UGCAUGU.
Regarding B8, the binding signal is 0.0022 KA relative to UGCAUGU.
To B9 belongs 0.00439 KA relative to UGCAUGU; to B10, 0.00767 KA relative to UGCAUGU.
With B11 the figure was 0.0186 KA relative to UGCAUGU; with B12, 0.00191 KA relative to UGCAUGU; with B13, 0.00698 KA relative to UGCAUGU.
In the case of B14, the binding signal was 0.00332 KA relative to UGCAUGU.
With B15 the figure was 0.0117 KA relative to UGCAUGU; with B16, 0.00819 KA relative to UGCAUGU.
With B17, the binding signal is 0.0301 KA relative to UGCAUGU.
To B18 belongs 0.00885 KA relative to UGCAUGU.
On to B19, for which the binding signal is 0.00389 KA relative to UGCAUGU.
In the case of B20, the binding signal was 0.0124 KA relative to UGCAUGU.
